Laboratory results as given in PMC5612608 (2017).

How the values were obtained:
natIn-NOTA-PEG2-RM26 = molecular target: T1, natIn-NOTA-PEG2-RM26 (synthetic construct, D-Phe1, statine (Sta) between His and Leu, C-terminal amide, N-terminal NOTA-PEG2 loaded with natIn); assay: competition binding with 125I-Tyr4-BBN on PC-3 cells
T1 chain: FQWAVGHL

natCo-NOTA-PEG2-RM26 = molecular target: T2, natCo-NOTA-PEG2-RM26 (synthetic construct, D-Phe1, statine (Sta) between His and Leu, C-terminal amide, N-terminal NOTA-PEG2 loaded with natCo); assay: as above
T2 chain: FQWAVGHL

B1: GRPR (protein)
chain: MALNDCFLLNLEVDHFMHCNISSHSADLPVNDDWSHPGILYVIPAVYGVIILIGLIGNITLIKIFCTVKSMRNVPNLFISSLALGDLLLLITCAPVDASRYLADRWLFGRIGCKLIPFIQLTSVGVSVFTLTALSADRYKAIVRPMDIQASHALMKICLKAAFIWIISMLLAIPEAVFSDLHPFHEESTNQTFISCAPYPHSNELHPKIHSMASFLVFYVIPLSIISVYYYFIAKNLIQSAYNLPVEGNIHVKKQIESRKRLAKTVLVFVGLFAFCWLPNHVIYLYRSYHYSEVDTSMLHFVTSICARLLAFTNSCVNPFALYLLSKSFRKQFNTQLLCCQPGLIIRSHSTGRSTTCMTSLKSTNPSVATFSLINGNICHERYV
How did the IC50 (natIn-NOTA-PEG2-RM26) turn out when B1 was run?
Its IC50 is 2.5 nM.

And the IC50 (natCo-NOTA-PEG2-RM26)?
Its IC50 is 5.5 nM.
